The values that follow come from PubChem BioAssay AID1508623 (National Center for Advancing Translational Sciences (NCATS), 2021).

Each structure is given as a SMILES string. Out of some 48,000 compounds screened, about 450 (0.94%) were called active. Another 19% or so got no clear call; they are omitted. The call rests on the fitted dose curve; in most records, active means well fitted inhibition curve with a large enough effect; inconclusive means small, poorly fitted or top-dose-only effect; inactive means no such curve, though single readings can be large or run the other way. The list shows a part of the results.
Potency means the concentration at half of the fitted maximal effect.

This assay in a line: Primary qHTS for Identification of Small Molecule Inhibitors of Huntingtin Promoter Activity. Further: nearly all actives have a fitted effect of over 50% in size. The conditions noted are these: HEK293 HTT promoter firefly luciferase reporter (activity 0% = vehicle and -100% = no light), 24 h; series mostly up to 57.5 µM; activity change, negative = inhibition: at the top concentration. The method, boiled down:
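Firefly luciferase readout (Dual-Glo, 10 min RT) after 24 h, 37 °C compound exposure (final up to 57.5 uM) of HEK293 reporter cells cultured 24 h beforehand; PTC124 at 50 uM final as control inhibitor; activity scaled vehicle 0%, zero RLU -100%.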
On to `Cc1ccc(C(=O)Nc2ccc(-c3nc4ccccc4s3)cc2C)cc1C`, for which the “activity change, negative = inhibition” value is inactive: 44.7%. Still for that read-out and setting: the figure for `COc1ccc(N2CC(NC(=O)CCCc3ccccc3)CC2=O)cc1` (configuration not stated) is inactive: 2.48%; for `COC(=O)c1ccccc1NC(=O)Nc1nnc(N2CCC(C)CC2)s1` it is inactive: 3.47%. Same read-out and setting: the figure for `CCOc1cc(CNC(=O)NC2COc3ccc(OC)cc3C2)cc(OCC)c1OCC` (configuration not stated) is inactive: -15%; for `O=C(NCc1ccc2c(c1)OCO2)c1ccc2c(c1)N(Cc1cccc(Cl)c1)C(=O)c1ccccc1S2=O` (configuration not stated) it is inactive: -20%. The same measure, in the same setting: the figure for `CCN(CCCNC(=O)c1ccc(Sc2ccc(F)cc2)c(NC(C)=O)c1)c1ccccc1` is inactive: -25.8%; for `Cc1ccc(CSC2=Nc3ccccc3C3=NC(CCC(=O)NCc4cccs4)C(=O)N23)cc1` (configuration not stated) it is inactive: 25.4%; for `O=C(NCC(c1ccc2c(c1)OCO2)N1CCN(c2ccccc2)CC1)C(=O)Nc1cccc(F)c1` (configuration not stated) it is inactive: -11.4%. As to `CCN(CC)C(=O)CSc1nc2cc3c(cc2c(=O)n1CCCCCC(=O)NCc1ccc(OC)cc1)OCO3`, the “activity change, negative = inhibition” value is inactive: -11.5%. Still for that read-out and setting: the figure for `Cc1ccc(-c2nc3c(C)cccn3c2Nc2ccccc2C)s1` is inactive: -1.38%; for `Cc1ccc(F)cc1NC(=O)Cn1c(=O)nc(-c2ccccc2F)c2cc(Cl)ccc21` it is inactive: -8.86%; for `CC1CCCN(c2nc3c(S(=O)(=O)c4ccc(C(C)C)cc4)nnn3c3ccsc23)C1` (configuration not stated) it is inactive: -3.02%. On the same count and under the same terms, then `COc1ccccc1C(=O)NCc1nnnn1-c1ccc(C)c(C)c1`, with inactive: 6.33%; and `COc1ccc(-c2csc(-c3nc(-c4ccc(Br)s4)cs3)n2)cc1F`, with inactive: -16.8%; and `CCC1CCCCN1CCCNC(=O)c1c(O)nc2ccccn2c1=O` (configuration not stated), with inactive: -4.46%. Same read-out and setting: the figure for `COc1cccc(CN2C(=O)c3ccccc3Sc3ccc(C(=O)NCCc4ccc(C)cc4)cc32)c1` is inactive: -24.4%. Consider `COc1ccccc1C(=O)N1CCCCC1CCN1CCOCC1` (configuration not stated), for which the “activity change, negative = inhibition” value was inactive: -7.16%.

With `O=C(Nc1ccc(-c2nc3cc(NC(=O)c4ccccc4F)ccc3o2)cc1)c1ccccc1F`, the “activity change, negative = inhibition” value is inactive: -8.15%. Still for that read-out and setting: the figure for `N#Cc1ccccc1NC(=O)CSc1ncn[nH]1` is inactive: -2.42%.

Turning to `CCCCCCCC/C=C\CCCCCCCC(=O)NCc1ccc(O)c(OC)c1`, the “activity change, negative = inhibition” value was inactive: -1.84%. The same measure, in the same setting: the figure for `CCCc1nn2c(=O)cc(COC(=O)c3cccs3)nc2s1` is inactive: 38.9%; for `CCOc1ccc(C(=O)c2cn(CC(=O)Nc3ccc4c(c3)OCCO4)c3ccc(OC)cc3c2=O)cc1` it is inactive: -14.2%; for `O=C(NCc1ccccc1)c1cc2sccc2n1Cc1ccc(F)cc1` it is inactive: -16.9%. With `Cn1c(=O)c2c(nc(Oc3ccc(F)cc3)n2Cc2ccc(F)cc2)n(C)c1=O`, the “activity change, negative = inhibition” value was inactive: -3.25%. On the same count and under the same terms, then `COc1ccccc1NC(=O)c1sc2nc(C)c(C(=O)Nc3ccc(C)cc3C)c(-c3ccc(Br)cc3)c2c1N`, with inactive: -17.6%; and `CCOc1ccc(C(=O)CSc2nc3cc(C(=O)NC4CCCC4)ccc3c(=O)n2CC2CCCO2)cc1` (configuration not stated), with inactive: -4.29%; and `CC(=O)c1ccc(NC(=O)c2ccc3c(c2)nnn3C2CCCC2)cc1`, with inactive: -14.2%.

Consider `Cc1ccc(C)c(NC(=O)c2nc(S(C)(=O)=O)ncc2N(Cc2ccc(C(C)(C)C)cc2)Cc2ccco2)c1`, for which the “activity change, negative = inhibition” value is inactive: -30%.

In the case of `CN1C(=O)Cc2cc(S(=O)(=O)N3CCN(c4cccc(C(F)(F)F)c4)CC3)ccc21`, the activity change, negative = inhibition was inactive: -18.8% [at 11.5 µM]. The same measure, in the same setting: the figure for `CCOc1ccc(CCn2c3c(c(=O)[nH]c2=O)C(NC(=O)c2ccccc2)(C(F)(F)F)C(=O)N3)cc1OCC` (configuration not stated) is inactive: 2.41%; for `CCCCCn1c(=O)[nH]c2cc(C(=O)N3CCN(c4cc(Cl)ccc4C)CC3)ccc2c1=O` it is inactive: -11.8%. For `CCOC(=O)N1CCC(NC(=O)c2ccc3c(c2)N(Cc2cc(C)ccc2C)C(=O)c2ccccc2S3(=O)=O)CC1`, the “activity change, negative = inhibition” value was inactive: -28.5%. With `CCOC(=O)c1c(S(=O)(=O)NCC(=O)Nc2cc(C)ccc2OC)c(C)n(C)c1C`, the “activity change, negative = inhibition” value was inactive: -9.08%. As to `Cc1ccccc1C(=O)OCc1cc(=O)n2nc(C3CC3)sc2n1`, the “activity change, negative = inhibition” value was inactive: 25.6%. The same measure, in the same setting: the figure for `Cc1ccc(C(=O)OCc2cc(=O)n3nc(-c4cccs4)sc3n2)cc1` is inactive: -2.97%; for `COc1ccc(NC(=O)CSc2nc3ccccc3nc2Cc2ccc(C)cc2)cc1Cl` it is inactive: -5.32%. The same measure, in the same setting: then `O=C(Cn1cc(SCc2ccccc2F)c2ccccc21)N1CCCCCC1`, with inactive: 6.32%; and `CCN(CC)c1ccc2cc(-c3nc(-c4ccc(Cl)cc4Cl)cs3)c(=O)oc2c1`, with inactive: -7.96%. For the compound `CCOC(=O)c1ccc(Nc2nc3nonc3nc2Nc2cccc(C)c2C)cc1`, the Potency is active: 2240 nM. As for `Cc1nc(-c2ccccc2)sc1-c1ccc(SCC(=O)NCc2ccccc2)nn1`, the “activity change, negative = inhibition” value is inactive: 6.1%.

Take `O=c1ncn2nc(Sc3ccc(F)cc3F)ccc2c1-c1c(Cl)cccc1Cl`: the “activity change, negative = inhibition” value is inactive: -21.8%. The same measure, in the same setting: then `Cc1coc2cc3oc(=O)c(CC(=O)NCc4ccccc4)c(C)c3cc12`, with inactive: -5.83%; and `CC(=O)N1CCCc2cc(S(=O)(=O)N3CCCC(C(=O)Nc4ccc(C)c(C)c4)C3)ccc21` (configuration not stated), with inactive: -17.8%; and `COc1cccc(-c2cnc(NCc3ccccc3Cl)n2C)c1`, with inactive: 16.2%. With `Cc1ccc(C(=O)Nc2ccc3oc(-c4cccnc4)nc3c2)c(Cl)c1`, the “activity change, negative = inhibition” value was inactive: -16.7%. Regarding `C[C@]12C=CC(=O)C=C1CC[C@@H]1[C@@H]2[C@@H](O)C[C@@]2(C)[C@H]1CC[C@]2(O)C(=O)CO`, the “activity change, negative = inhibition” value was inactive: 3.4%. The same measure, in the same setting: then `CCOc1ccccc1NC(=O)c1cc(S(=O)(=O)NC2CCCC2)ccc1F`, with inactive: -29.1%.
